Screen size: about 310,000 compounds; about 2,200 (0.71%) showed an effect of 50% or more. Effects have a minus sign here. The list shows a part of the results.
The compounds below were run against human ether-à-go-go-related gene (hERG) potassium channel (human, UniProt Q12809) (assay: primary screen, population patch clamp on CHO cells stably expressing hERG).
Chain of human ether-à-go-go-related gene (hERG) potassium channel (Q12809 whole entry, looked up): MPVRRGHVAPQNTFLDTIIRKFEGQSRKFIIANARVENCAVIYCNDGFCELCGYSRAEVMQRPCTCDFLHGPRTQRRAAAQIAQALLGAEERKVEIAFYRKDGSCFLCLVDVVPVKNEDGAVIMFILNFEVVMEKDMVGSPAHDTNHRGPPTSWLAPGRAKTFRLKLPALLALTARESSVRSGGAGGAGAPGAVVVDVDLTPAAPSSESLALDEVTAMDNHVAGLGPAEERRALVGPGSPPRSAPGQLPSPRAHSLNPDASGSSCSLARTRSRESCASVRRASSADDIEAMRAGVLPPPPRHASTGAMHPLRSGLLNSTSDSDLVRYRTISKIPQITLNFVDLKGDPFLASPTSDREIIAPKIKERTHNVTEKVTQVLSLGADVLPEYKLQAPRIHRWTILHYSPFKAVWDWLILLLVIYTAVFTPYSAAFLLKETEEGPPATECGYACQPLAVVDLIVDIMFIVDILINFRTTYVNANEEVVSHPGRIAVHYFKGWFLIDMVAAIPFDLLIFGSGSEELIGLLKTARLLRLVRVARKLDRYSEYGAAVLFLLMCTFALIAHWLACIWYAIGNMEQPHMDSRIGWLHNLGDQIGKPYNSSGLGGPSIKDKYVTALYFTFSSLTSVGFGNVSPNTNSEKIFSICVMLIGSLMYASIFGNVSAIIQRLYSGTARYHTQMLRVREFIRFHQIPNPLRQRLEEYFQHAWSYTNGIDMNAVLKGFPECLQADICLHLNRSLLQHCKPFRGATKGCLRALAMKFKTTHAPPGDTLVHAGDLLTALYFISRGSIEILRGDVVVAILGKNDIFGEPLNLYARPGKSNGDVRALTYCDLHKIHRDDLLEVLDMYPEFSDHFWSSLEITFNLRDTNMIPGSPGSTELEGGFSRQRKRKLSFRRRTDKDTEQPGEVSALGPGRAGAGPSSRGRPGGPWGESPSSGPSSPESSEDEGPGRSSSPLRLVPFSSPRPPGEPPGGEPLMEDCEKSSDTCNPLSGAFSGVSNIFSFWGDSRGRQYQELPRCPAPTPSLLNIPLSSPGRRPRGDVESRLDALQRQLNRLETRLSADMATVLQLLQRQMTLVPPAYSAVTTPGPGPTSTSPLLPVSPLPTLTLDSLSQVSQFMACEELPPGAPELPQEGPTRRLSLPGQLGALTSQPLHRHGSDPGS

| Structure (SMILES) | hERG current change (%, negative = inhibition) at 1uM [%] |
| --- | --- |
| O=C(CN1C(=O)NC2(CCCCC2)C1=O)N1CCOCC1 | 7.63 |
| Cc1ccccc1C(=O)c1c[nH]c(C(=O)N2CCN(c3ccccc3F)CC2)c1 | 10.6 |
| COc1ccc(OC)c(NC(=O)C(C)N2c3cccc4cccc(c34)S2(=O)=O)c1 (stereo not shown) | 13 |
| COc1cccc(CN2CCN(c3nc4nonc4nc3N3CCCCC3)CC2=O)c1 | 4.7 |
| CCOc1ccc(C(=O)NC(C)C2COc3ccccc3O2)cc1 (stereo not shown) | -0.571 |
| COc1cc(NC(=O)c2noc3c2CCCC3)c(OC)cc1Cl | 7.92 |
| CCn1c(O)c(N=NC(=O)CNc2cccc(C)c2)c2ccccc21 | 11.8 |
| Cc1ccc(-c2csc(NC(=O)CN3CC(C)OC(C)C3)n2)cc1 (stereo not shown) | 11.1 |
| CCOc1ccccc1NCc1cc(=O)oc2cc(C)c(O)cc12 | 16.1 |
| CCCCNC(=O)NS(=O)(=O)c1ccc(C(=O)OC)o1 | 3.41 |
| COCCSc1nc2sc3c(c2c(=O)n1-c1ccccc1)CCN(C)C3 | 15 |
| Cc1ccc(OCCN2CCCCCC2)c(C)c1 | -15.3 |
| Cc1nnc(SCC(=O)N2CC(=O)Nc3ccccc32)n1-c1ccccc1 | 15.3 |
| O=C(NCC1CCCO1)C1CCCN(S(=O)(=O)c2ccc(Br)cc2)C1 (stereo not shown) | 6.18 |
| Cc1[nH]c(C)c(S(=O)(=O)N2CCN(c3cccc(C(F)(F)F)c3)CC2)c1C(=O)N1CCCCC1 | 16.7 |
| CC(C)(C)CC(=O)NC(=S)NCc1ccccc1 | 16.5 |
| CCOc1ccccc1CN1CCN(Cc2c[nH]c3ccccc23)CC1CCO (stereo not shown) | 9.45 |
| Cc1nc2c(-c3ccccc3)c[nH]n2c(=O)c1Cc1ccccc1 | 13.3 |
| O=C1CCCN2N=C(SCC(=O)Nc3ccc(OC(F)(F)F)cc3)SC2=N1 | 16.2 |
| Cc1ccc(C(=O)NCc2ccco2)cc1S(=O)(=O)N1CCOCC1 | 18.1 |

| Structure (SMILES) | hERG current change (%, negative = inhibition) at 1uM [%] |
| --- | --- |
| Cc1cc(C)cc(OCC(=O)OCC(=O)N(CC(C)C)c2c(N)n(Cc3ccccc3)c(=O)[nH]c2=O)c1 | 3.24 |
| O=c1[nH]c(C2CCCN(S(=O)(=O)c3cccc(F)c3)C2)nc2c1nnn2Cc1ccccc1 (stereo not shown) | 2.9 |
| O=C(NNc1cc(Cl)cc(Cl)c1)c1cccs1 | 15.6 |
| Cc1ccc(C)c(Nc2ncnc(N)c2[N+](=O)[O-])c1 | 9.83 |
| CC(=O)N1CCN(c2nnc(-c3ccc(C)cc3)c3ccccc23)CC1 | -10.2 |
| CCN(CCC(=O)Nc1ccc(Br)c(C)c1)Cc1ccccc1.Cl | -4.84 |
| O=C(CNC(=O)c1cccs1)N/N=C/c1ccc(O)cc1O | 10.6 |
| Cn1cnc([N+](=O)[O-])c1SCCO | 18.7 |
| O=C(OCC(=O)N1CCN(C(=O)c2ccco2)CC1)c1ccc(Cl)c(Cl)c1 | -24.1 |
| CN1CCN(/C(=N\S(=O)(=O)c2ccc(F)cc2)c2ccccc2)CC1 | 14.1 |
| COc1ccc(Cc2nnc(NS(C)(=O)=O)s2)cc1 | 4.8 |
| O=C(c1ccccc1Cl)N1CCN(c2ncccn2)CC1 | 9.9 |
| CC(=O)N1N=C(c2cccc(Br)c2)OC12CCCC2 | 9.44 |
| COCc1nc2sc(C)c(C)c2c(=O)[nH]1 | 10.9 |
| O=C1CC2(CCN(C(=O)c3ccc(Br)cc3)CC2)Oc2ccccc21 | -30.8 |
| CC(C)C[C@@H](CO)N1CCN(Cc2ccc(O)cc2)CCC1=O | 8.84 |
| CC(=O)c1c(C(C)=O)c(C)n(-c2ccc3ncccc3c2)c1C | 17.5 |
| Cc1[nH]c2ccccc2c1[C@H]1[C@@H](CC#N)C1(C)C | 0.902 |
| Cc1nnc(SCC(=O)NC2CCCCCC2)n1C | 20.1 |
| COc1ccc(C2/C(=C(/O)c3ccccc3)C(=O)C(=O)N2c2ncccn2)cc1OC (stereo not shown) | 4.14 |

| Structure (SMILES) | hERG current change (%, negative = inhibition) at 1uM [%] |
| --- | --- |
| NC(=O)c1c(NC(=O)Cn2cnc([N+](=O)[O-])n2)sc2c1CCCC2 | 11.4 |
| COc1ccc(CNC(=O)COC(=O)c2ccco2)cc1 | 9.97 |
| CCOc1cc(CNc2ccc(N3CCCC3)cc2)cc(Cl)c1OC | 6.15 |
| COc1cccc(/C=N/NC(=O)c2cc(-c3ccccn3)nc3ccccc23)c1O | 11.2 |
| COc1ccc(C(=O)NCCCOC(C)C)cc1OC1CCN(C(C)=O)CC1 | 16.5 |
| COc1ccc(/C=C/C(=O)Nc2ccc(S(=O)(=O)Nc3onc(C)c3C)cc2)cc1OC | 18.7 |
| COc1ccc(CC(=O)NCC(c2ccc(OC)cc2)N(C)C)cc1 (stereo not shown) | 8.86 |
| COCCN(C(=O)COC(=O)c1ccc2[nH]c(C)c(C)c2c1)c1c(N)n(Cc2ccccc2)c(=O)[nH]c1=O | 7.98 |
| CCOc1ccc(NC(=O)CSc2nnc(C)n2Cc2ccccc2)cc1 | -11.2 |
| CCOc1ccccc1NC(=O)CCc1nnc2ccc(N3CCC4(CC3)OCCO4)nn12 | 1.14 |
| CC(C)N1CCc2c(sc(NC(=O)c3ccc(S(=O)(=O)N(C)CC4CCCO4)cc3)c2C(N)=O)C1.Cl (stereo not shown) | 3.64 |
| CCOc1ccc(/C=N/NC(=O)CN2CCSCC2)cc1 | 10.2 |
| CCN(CC)CCNc1ncnc2c1[nH]c1ccc(OC)cc12 | -42.6 |
| COc1ccc(C(=O)OCC(=O)Nc2ccc(Cl)cn2)cc1 | 14.2 |
| CN(C)CCNC(=O)c1onc(CSc2ccc(F)cc2)c1C(=O)NCCN(C)C | 9.46 |
| Cn1nc(-c2ccccc2)c(-c2nc(-c3ccc(Cl)cc3)no2)c1Cl | 8.1 |
| Cc1c(S(=O)(=O)N2CCCC(C(=O)O)C2)cnn1C (stereo not shown) | 15.6 |
| Cc1ccsc1/C=N/Nc1ccc(Cl)nn1 | 8.37 |

Source: article PMC4336329 (PLoS ONE, 2015)
